According to the RNAGym collection of RNA variant scans (doi:10.1093/nar/gkz1192):
The source gives no read counts; variants with many changes may rest on few reads.

B1: CPEB3 Ribozyme (parent)
chain: UAACAGGGGGCCACAGCAGAAGCGUUCACGUCGCAGCCCCUGUCAGAUUCUGGUGAAUCUGCGAAUUCUGCUGUAUAUCUC

Variants of: B1
Assay: self-cleavage, relative activity (ratio to wild type); higher = more cleavage; in vitro, sequencing
How it was run: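 Libraries of CPEB3 self-cleaving ribozyme mutants came from rounds of error-prone PCR and carried barcodes, which DNA sequencing matched to variants. In vitro transcription used T7 RNA polymerase at 37°C for 5 hours, with a further 15 min in DNase I before EDTA stopped the reaction; the ribozymes cleaved during both steps. The RNA was reverse transcribed with template switching and sequenced on Illumina. Relative activity is the cleaved/total read fraction of a variant divided by that of the unmutated ribozyme, averaged over three batches with at least 5 reads.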

| Variant | self-cleavage |
| --- | --- |
| A5U A15U U43C | 0.28 |
| A5U A15U U48C | 0.47 |
| A5U A15U U49A A64G U80A | 0.69 |
| A5U A15U U58C | 0.18 |
| A5U A15U U69A U74G | 0.34 |
| A5U A15U U72A | 1.16 |
| A5U A18C C27U A77U | 0.24 |
| A5U A18G A20G U26G A28U | 0.11 |
| A5U A18G A21G A28G A56G A57G | 0.33 |
| A5U A18G A21G A56G C62U | 0.15 |
| A5U A18G A28C C37U U43A A64G | 0.17 |
| A5U A18G A28G U41A | 0.43 |
| A5U A18G A28G U60A | 0.63 |
| A5U A18G A47G | 0.63 |
| A5U A18G A47G U78C | 0.93 |
| A5U A18G A56G | 0.66 |
| A5U A18G C29U U48G U78C | 0.25 |
| A5U A18G C40A U43C | 0.12 |
| A5U A18G C40U U51A | 0.41 |
| A5U A18G G19A U80C | 0.51 |
| A5U A18G G42A | 0.47 |
| A5U A18G U25C C32U | 0.03 |
| A5U A18G U26A U51A U60C U72C U78A | 0.29 |
| A5U A18G U43C U48C | 0.47 |

| Variant | self-cleavage |
| --- | --- |
| A5U A18G U43C U72C | 0.25 |
| A5U A18G U49A A56G U66C | 0.23 |
| A5U A18G U49A A64G U69C | 0.26 |
| A5U A18G U51C U60C | 0.1 |
| A5U A18G U69A | 0.71 |
| A5U A18G U74C A75U U76A | 1 |
| A5U A18G U80C | 1.02 |
| A5U A18U A20C A45G G46C | 0.17 |
| A5U A18U A20G U43A A64U U72C | 0.35 |
| A5U A18U A20G U51G A64G A65U U80A | 0.11 |
| A5U A18U A20U C23G C27A C39G | 0.05 |
| A5U A18U A21G U80C | 0.09 |
| A5U A18U A28G A45G A57G U78C U80C | 0.14 |
| A5U A18U A45G U58C | 0.18 |
| A5U A18U A57G C71U | 0.36 |
| A5U A18U A65G | 0.29 |
| A5U A18U C29G U31C U43C A77G | 0.03 |
| A5U A18U C34U A35G U58A U72G | 0.08 |
| A5U A18U C44U A56U A65G | 0.1 |
| A5U A18U C62U | 0.12 |
| A5U A18U U26C A47G U58C U74C | 0.23 |
| A5U A18U U26G U67C | 0.34 |
| A5U A18U U31A A35U U41A A57G | 0.05 |
| A5U A18U U31A U41A A45G C79A | 0.49 |

| Variant | self-cleavage |
| --- | --- |
| A5U A18U U31C U49C G55C C59A A64G | 0.05 |
| A5U A18U U41C | 0.61 |
| A5U A18U U41C A56G | 0.2 |
| A5U A18U U48C C81G | 0.16 |
| A5U A18U U48C G52U | 0.5 |
| A5U A18U U48C U67C | 0.17 |
| A5U A18U U51C U60A U66C U76A A77U | 0.38 |
| A5U A20G A21U U60C U76C | 0.09 |
| A5U A20G A28U C29U | 0.23 |
| A5U A20G A28U C29U U72A | 0.29 |
| A5U A20G A35G G73A U78C U80C | 1.3 |
| A5U A20G A35U U51C | 0.13 |
| A5U A20G A35U U58A U72C U74C | 0.13 |
| A5U A20G A45G U48C A57G U78C | 0.64 |
| A5U A20G A47G U60C U72C | 0.27 |
| A5U A20G A56U | 0.54 |
| A5U A20G C29U A35G C59A | 0.24 |
| A5U A20G C32U A56U U67C | 0.3 |
| A5U A20G C34A U67C | 0.15 |
| A5U A20G C59U | 0.44 |
| A5U A20G G24A C50A U60C G70A U76C | 0.06 |
| A5U A20G U25A A28G U49G A64G | 0.16 |
| A5U A20G U25A G53C A56G | 0.11 |
| A5U A20G U25C A47G | 0.44 |

| Variant | self-cleavage |
| --- | --- |
| A5U A20G U31C U51A U69C | 0.2 |
| A5U A20G U31C U67C U69C U80C | 0.16 |
| A5U A20G U31G U49C | 0.19 |
| A5U A20G U41C U74A | 1.08 |
| A5U A20G U43C | 0.68 |
| A5U A20G U43C A56C U69A U78C | 0.09 |
| A5U A20G U43C U66C | 0.2 |
| A5U A20G U48C | 0.41 |
| A5U A20G U48C U69C | 0.25 |
| A5U A20G U67C U69C | 0.57 |
| A5U A20G U69A | 0.48 |
| A5U A20G U74C U76C | 0.94 |
| A5U A20U A28G U54G U74C | 0.12 |
| A5U A20U A35G A64C U78C | 0.21 |
| A5U A20U A35U | 0.3 |
| A5U A20U A45G U74A A75U | 0.55 |
| A5U A20U A56G U76C | 0.28 |
| A5U A20U A65G | 0.21 |
| A5U A20U C23U U25C A45U A75U | 0.08 |
| A5U A20U C29G U74C | 0.11 |
| A5U A20U C29U A35G U54A A64G | 0.04 |
| A5U A20U C29U U49A U51A U72A | 0.08 |
| A5U A20U C34A U49A | 0.22 |
| A5U A20U G30U A45U A57C | 0.13 |

| Variant | self-cleavage |
| --- | --- |
| A5U A20U U25C U41C U48A U74C U78C | 0.15 |
| A5U A20U U25C U48C A64G | 0.14 |
| A5U A20U U26C A35C U54C U67C | 0.09 |
| A5U A20U U31A C32G G36A A45U A65G | 0.16 |
| A5U A20U U31G G33U C39G U54A | 0.08 |
| A5U A20U U58C | 0.16 |
| A5U A20U U66C | 0.25 |
| A5U A20U U66C U69C | 0.2 |
| A5U A21G A28G C50A | 0.53 |
| A5U A21G A35G U43A U69A | 0.69 |
| A5U A21G A35U A65G | 0.17 |
| A5U A21G A56C U72A | 0.13 |
| A5U A21G A64G A65G U66C | 0.27 |
| A5U A21G A75G | 0.65 |
| A5U A21G C27A C44A A57G U60A C62U | 0.15 |
| A5U A21G C29U C37U U43G | 0.19 |
| A5U A21G C37G U48C | 0.22 |
| A5U A21G C50A A65U | 0.2 |
| A5U A21G G24A U31C A45U U74A | 0.28 |
| A5U A21G G52C U80C | 0.78 |
| A5U A21G U25C A35G U60A A75U | 0.03 |
| A5U A21G U26A | 0.58 |
| A5U A21G U26A A28G U66A U67A C71A | 0.1 |
| A5U A21G U41A U74C A77U | 0.82 |

| Variant | self-cleavage |
| --- | --- |
| A5U A21G U43A U48A U69C U78A | 0.04 |
| A5U A21G U54C A56C | 0.21 |
| A5U A21G U54C U58C A77U | 0.2 |
| A5U A21G U60C C68G U80C | 0.11 |
| A5U A21U A45G G46U U51C U58C | 0.2 |
| A5U A28C A56G | 0.67 |
| A5U A28C U31C U49C G55C A64G U78C | 0.08 |
| A5U A28G A35G U48C | 0.66 |
| A5U A28G A64U | 0.24 |
| A5U A28G C29A U31C U43C U80G | 0.22 |
| A5U A28G C38G A45G U51A | 0.03 |
| A5U A28G C50A | 0.27 |
| A5U A28G G36U U60C U67C C68A | 0.13 |
| A5U A28G U31C A35U A56U U74C | 0.16 |
| A5U A28G U41A U67A | 0.11 |
| A5U A28G U41C A45G U51A | 0.6 |
| A5U A28G U43C | 0.41 |
| A5U A28G U43C U49C | 0.33 |
| A5U A28G U49A G55C C71A U72G A77U | 0.04 |
| A5U A28G U51A | 0.65 |
| A5U A28G U72C A77G | 0.97 |
| A5U A28U A35G U51A U72C U80C | 1.26 |
| A5U A28U A65G A75G U76C | 0.2 |
| A5U A28U A75C | 1.32 |

| Variant | self-cleavage |
| --- | --- |
| A5U A28U C44U U72A A77G | 0.1 |
| A5U A28U G33C U43C U54C | 0.25 |
| A5U A28U G33U A77U | 0.21 |
| A5U A28U U41C U66C U80C | 0.21 |
| A5U A28U U48C U51A A65G U69C | 0.12 |
| A5U A28U U54C U74C A75G | 1.23 |
| A5U A28U U69A U72C | 0.58 |
| A5U A35C U41A U54C | 0.29 |
| A5U A35G A45G U51C U69A C71G | 0.79 |
| A5U A35G A45U U51C | 0.87 |
| A5U A35G A57C | 0.91 |
| A5U A35G A57U | 1.22 |
| A5U A35G A64G U80C | 1.25 |
| A5U A35G G53A | 1.26 |
| A5U A35G U67A U74C | 1.26 |
| A5U A35G U78A | 1.29 |
| A5U A35U A64U U80A | 0.28 |
| A5U A35U C59U | 0.34 |
| A5U A35U G73A | 1.26 |
| A5U A35U U43C | 0.37 |
| A5U A35U U43C U60C U66C U69A U76C | 0.14 |
| A5U A35U U48C C50G | 0.22 |
| A5U A35U U54C A56G | 0.45 |
